Data on two molecules can be found in paper PMC6548130.

In assay [1] the target is T1, GST-Atg17 (yeast) (UniProt Q06410).
T1 sequence: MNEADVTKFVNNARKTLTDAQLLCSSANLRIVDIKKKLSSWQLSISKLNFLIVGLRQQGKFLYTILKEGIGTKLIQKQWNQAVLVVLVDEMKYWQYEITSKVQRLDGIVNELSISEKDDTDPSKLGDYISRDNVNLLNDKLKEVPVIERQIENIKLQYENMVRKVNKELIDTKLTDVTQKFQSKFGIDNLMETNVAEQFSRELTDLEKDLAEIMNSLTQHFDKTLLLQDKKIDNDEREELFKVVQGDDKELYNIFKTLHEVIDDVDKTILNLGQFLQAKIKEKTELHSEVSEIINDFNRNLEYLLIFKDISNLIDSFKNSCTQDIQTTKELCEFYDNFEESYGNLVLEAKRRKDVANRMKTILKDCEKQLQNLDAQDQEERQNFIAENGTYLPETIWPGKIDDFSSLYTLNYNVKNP
The assay can be described thus: pull-down; GST pull-down from yeast cell lysates: one protein GST-tagged from a plasmid (pYEX4T-1, 500 µM CuSO4 for 2 h), the other 3×HA-tagged in its endogenous locus; cells starved in SD-N for 30 min; blots with anti-GST and anti-HA; WT and vps21Δ cells (in vps21Δ ∼40% of the interaction observed in WT cells).

Assay [2] addresses T2, GST-Snf7 (yeast) (UniProt P39929).
T2 sequence: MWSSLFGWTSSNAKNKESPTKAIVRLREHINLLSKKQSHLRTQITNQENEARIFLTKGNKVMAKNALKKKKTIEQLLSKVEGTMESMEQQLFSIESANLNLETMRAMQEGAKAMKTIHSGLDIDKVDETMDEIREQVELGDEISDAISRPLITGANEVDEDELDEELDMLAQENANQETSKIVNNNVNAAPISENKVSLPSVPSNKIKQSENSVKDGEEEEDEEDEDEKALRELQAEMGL
The assay is described as above.

These are yes or no findings as the source states them, for the method shown. In cells and extracts the contact can be indirect. Some binding calls cover weakened binding; strength is not graded here. Sequences can lack the tags named with a protein.

B1: Snf7-HA (protein, UniProt P39929 1-240)
chain: T2 sequence
Take B1: the binding result in assay [1] is “binds”.

B2: Atg17-HA (protein, UniProt Q06410 1-417)
chain: T1 sequence
Turning to B2, in assay [2], the binding result was “binds”.
